From the supplement of paper PMC4967469
The IC50 comes from the fitted curve, where viability falls to half of the control; fits outside the tested doses are given as limits. For AUC the same curve is integrated over the 256-fold range of doses and scaled to a fraction; it is 1 without any effect and falls as sensitivity rises. For part of these data: The top dose, if marked as inferred, was calculated from the reported fits.

Assays:
Test in all cases: Viability of human cancer cell lines after 72 h of drug (GDSC screen)
Midostaurin = compound: CO[C@@H]1[C@H](N(C)C(=O)c2ccccc2)C[C@H]2O[C@]1(C)n1c3ccccc3c3c4c(c5c6ccccc6n2c5c31)C(=O)NC4 [Midostaurin]; conditions: top dose 0.512 µM; top dose inferred
Procedure: (§1)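 Human cancer cell lines in 384-well plates, medium with 10% serum, drug for 72 h over a 256-fold dose range (nine 2-fold or five 4-fold steps up to the top dose). Adherent lines were fixed and stained with the nucleic acid dye Syto60, suspension lines read with resazurin; signal relative to control wells, capped at 0 and 100%. One two-parameter sigmoid per drug and line, fitted in a mixed model over all curves with the slope shared within a line.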

Mitomycin C = compound: CO[C@@]12[C@H](COC(N)=O)C3=C(C(=O)C(C)=C(N)C3=O)N1C[C@@H]1N[C@@H]12 [Mitomycin C]; conditions: top dose 16 µM
Procedure: as §1

Bosutinib = compound: COc1cc(Nc2c(C#N)cnc3cc(OCCCN4CCN(C)CC4)c(OC)cc23)c(Cl)cc1Cl [Bosutinib]; conditions: top dose 2 µM
Procedure: as §1

NVP-BHG712 = compound: Cc1ccc(C(=O)Nc2cccc(C(F)(F)F)c2)cc1Nc1nc(-c2cccnc2)nc2c1cnn2C [NVP-BHG712]; conditions: top dose 10.24 µM; top dose inferred
Procedure: as §1

IOX2 = compound: O=C(O)CNC(=O)c1c(O)c2ccccc2n(Cc2ccccc2)c1=O [IOX2]; conditions: top dose 0.1 µM; top dose inferred
Procedure: as §1

Cell Line	AUC (Midostaurin)	IC50 (Midostaurin) [nM]	AUC (Mitomycin C)	IC50 (Mitomycin C) [nM]	AUC (Bosutinib)	IC50 (Bosutinib) [nM]	AUC (NVP-BHG712)	IC50 (NVP-BHG712) [nM]	AUC (IOX2)	IC50 (IOX2) [nM]
SKN-3 (head and neck, adherent)	0.981	> 512	0.815	10800	0.749	752	0.933	> 10200	0.98	> 100
K2 (melanoma, adherent)	0.978	> 512	0.446	682	0.834	1890	0.849	> 10200	0.955	> 100
NCI-H1755 (lung adenocarcinoma, adherent)	0.581	55.3	0.74	5510	0.911	> 2000	0.404	334	0.96	> 100
CS1 (bone, adherent)	0.876	> 512	0.623	2280	0.899	> 2000	0.884	> 10200	0.971	> 100
PC-14 (lung adenocarcinoma, adherent)	0.864	370	0.388	511	0.771	685	0.891	9700	0.989	> 100
SK-MEL-3 (melanoma, adherent)	0.917	> 512	0.439	662	0.984	> 2000	0.808	6330	0.981	> 100
T84 (large intestine, adherent)	0.981	> 512	0.249	187	0.989	> 2000	0.936	> 10200	0.977	> 100
G-292 Clone A141B1 (osteosarcoma, adherent)	0.551	47.8	0.955	> 16000	0.972	> 2000	0.958	> 10200	0.967	> 100
T-T (oesophagus, adherent)	0.781	211	0.156	88	0.805	1000	0.929	> 10200	0.959	> 100
EGI-1 (biliary tract, adherent)	0.88	> 512	0.577	1730	0.928	> 2000	0.89	> 10200	0.979	> 100
TGBC11TKB (stomach, adherent)	0.992	> 512	0.457	774	0.985	> 2000	0.926	> 10200	0.991	> 100
CHSA8926 (chondrosarcoma, adherent)	0.647	97.2	0.915	> 16000	0.917	> 2000	0.978	> 10200	0.972	> 100
NCI-H1944 (lung adenocarcinoma, adherent)	0.881	> 512	0.189	109	0.956	> 2000	0.905	> 10200	0.945	> 100
SCC-9 (head and neck, adherent)	0.864	> 512	0.709	4650	0.954	> 2000	0.851	> 10200	0.924	> 100
LU-135 (small cell lung carcinoma, suspension)	0.753	146	0.063	< 62.5	0.991	> 2000	0.905	9640	0.992	> 100
EN (endometrium, adherent)	0.894	> 512	0.683	3740	0.976	> 2000	0.898	> 10200	0.976	> 100
CAL-33 (head and neck, adherent)	0.89	> 512	0.421	607	0.611	252	0.974	> 10200	0.912	> 100
ABC-1 (lung adenocarcinoma, adherent)	0.764	223	0.221	125	0.82	1460	0.962	> 10200	0.98	> 100
NCI-H838 (lung adenocarcinoma, adherent)	0.92	> 512	0.558	1450	0.943	> 2000	0.973	> 10200	0.985	> 100
EFO-27 (ovary, adherent)	0.865	> 512	0.527	1210	0.822	1570	0.871	> 10200	0.978	> 100
CAL-51 (breast, adherent)	0.689	99.4	0.071	< 62.5	0.991	> 2000	0.991	> 10200	0.973	> 100
DMS-273 (small cell lung carcinoma, adherent)	0.732	154	0.227	151	0.985	> 2000	0.813	5920	0.983	> 100
H2869 (mesothelioma, adherent)	0.855	> 512	0.7	4230	0.976	> 2000	0.925	> 10200	0.957	> 100
SW1990 (pancreas, adherent)	0.939	> 512	0.426	603	0.941	> 2000	0.985	> 10200	0.983	> 100
